# Test results as given in PubChem BioAssay (Tox21).
# Values joined by “and” are separate entries in the source; they are usually repeats but may differ in a detail not shown here. Equal values may be shown once. Inconclusive results, whose numbers are uncertain, are shown with a selection of clear calls. For some of these results: Potencies beside an inconclusive call are fits to weak or partial responses and may not hold up. Active and inactive are the calls of the source. Unless noted, calls come from the whole dose curve; as a rule, active = well fitted curve in the direction sought with a large enough effect in the repeat runs; inconclusive = weak or mixed curves; inactive = no such curve, though single readings can be large; an effect the other way counts as inactive or inconclusive.
# How the values were obtained:
# [1] = qHTS assay to identify small molecule that activate the aryl hydrocarbon receptor (AhR) signaling pathway - cell viability counter screen (AID 743086); note: nearly all actives have a fitted effect of over 45% in size; note: potency is the fitted concentration of half-maximal effect
# In short: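 Cytotoxicity counter screen: CellTiter-Fluor signal (30 min, 37 C) in 4000 HepG2 cells/well carrying the DRE-luciferase reporter, following 24 h compound exposure at 37 C.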
# [2] = molecular target: Peroxisome proliferator-activated receptor gamma (Homo sapiens) (UniProt P37231); test: qHTS assay to identify small molecule agonists of the peroxisome proliferator-activated receptor gamma (PPARg) signaling pathway (AID 743094; active = well fitted activation curve with a large enough effect in the signal ratio in the repeat runs, not every such curve was filed as active; inconclusive = weak or mixed curves, or effect the other way; inactive = no such curve, though single readings can be large or run the other way; the % refers to the signal ratio; note: % is set by controls: 0 for no effect and ±100 for the full control effect); conditions: HEK293H PPARg-UAS-bla, beta-lactamase FRET ratio, 17 h; activation: at 57 µM (top of the series) unless noted
# Sequence of UniProt P37231 (P37231 whole entry, looked up): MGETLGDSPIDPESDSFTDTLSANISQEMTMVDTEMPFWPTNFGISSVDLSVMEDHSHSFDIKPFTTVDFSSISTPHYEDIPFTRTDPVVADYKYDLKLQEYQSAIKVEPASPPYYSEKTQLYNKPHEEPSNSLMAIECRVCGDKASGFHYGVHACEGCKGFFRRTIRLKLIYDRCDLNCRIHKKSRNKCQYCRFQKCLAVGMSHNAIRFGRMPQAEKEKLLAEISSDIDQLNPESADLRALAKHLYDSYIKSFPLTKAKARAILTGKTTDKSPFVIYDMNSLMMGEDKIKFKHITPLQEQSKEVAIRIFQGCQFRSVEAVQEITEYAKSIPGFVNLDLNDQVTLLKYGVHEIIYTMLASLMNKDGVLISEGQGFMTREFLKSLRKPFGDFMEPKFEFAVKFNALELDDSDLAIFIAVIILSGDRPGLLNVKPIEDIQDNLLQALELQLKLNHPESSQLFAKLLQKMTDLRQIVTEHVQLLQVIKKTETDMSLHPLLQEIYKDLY
# In short: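 Compounds dissolved in DMSO were added to PPARg UAS-bla HEK293H cells for 17 h at 37C, and reporter expression was quantified by fluorescence intensity after 1 h with LiveBLAzer B/G FRET substrate.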
# [3] = molecular target: Peroxisome proliferator-activated receptor gamma (Homo sapiens) (UniProt P37231); test: qHTS assay to identify small molecule antagonists of the peroxisome proliferator-activated receptor gamma (PPARg) signaling pathway (AID 743191; calls by dose curve; note: nearly all actives have a fitted effect of over 30% in size; note: potency is the fitted concentration of half-maximal effect); conditions: HEK293H PPARg-UAS-bla, beta-lactamase ratio, antagonist, 17 h; ratio activity, negative = inhibition: at 62.6 µM (top of the series) unless noted
# In short: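 Beta-lactamase reporter under UAS control in HEK293H PPARg-bla cells; compound treatment 17 h at 37C. Read-out: fluorescence intensity after 1 h room-temperature incubation with LiveBLAzer B/G FRET substrate.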
# [4] = qHTS assay for small molecule agonists of the antioxidant response element (ARE) signaling pathway (AID 743202; active = well fitted activation curve with a large enough effect in the signal ratio in the repeat runs, not every such curve was filed as active; inconclusive = weak or mixed curves, or effect the other way; inactive = no such curve, though single readings can be large or run the other way; the % refers to the signal ratio; note: potency is the fitted concentration of half-maximal effect); conditions: HepG2 ARE-bla reporter, beta-lactamase FRET, 16 h; activation: at 73.3 µM (top of the series) unless noted
# In short: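 Quantitative high-throughput format in HepG2 cells bearing an integrated ARE-beta-lactamase reporter. Compound exposure lasted 16 h at 37 C, and fluorescence was read 2 h after adding LiveBLAzer B/G substrate at room temperature.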
# [5] = qHTS assay for small molecule agonists of the antioxidant response element (ARE) signaling pathway - cell viability counter screen (AID 743203; calls by dose curve; note: potency is the fitted concentration of half-maximal effect; nearly all actives have a fitted effect of over 55% in size); conditions: ARE-bla HepG2 viability, CellTiter-Glo luminescence, 16 h; viability change, negative = cytotoxic: at 73.3 µM (top of the series)
# In short: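 Following 16 hrs of compound treatment at 37C, HepG2 cells with an ARE-controlled beta-lactamase gene were lysed with CellTiter-Glo. Luminescence was read after 30 min at room temperature.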
# [6] = qHTS assay to identify small molecule agonists of the peroxisome proliferator-activated receptor delta (PPARd) signaling pathway - cell viability counter screen (AID 743211); conditions: PPARd-bla HEK293H viability, CellTiter-Glo luminescence, 17 h; activity change, negative = cytotoxicity: at 62.6 µM (top of the series); note: potency is the fitted concentration of half-maximal effect; nearly all actives have a fitted effect of over 55% in size
# In short: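 Read-out: CellTiter-Glo luminescence, 30 min RT, measured in the same wells as the beta-lactamase reporter. Cells: GeneBLAzer PPAR delta UAS-bla HEK293H, 3000 cells/well, compound exposure 17 h at 37C.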
# [7] = molecular target: Peroxisome proliferator-activated receptor delta (Homo sapiens) (UniProt Q03181); test: qHTS assay to identify small molecule agonists of the peroxisome proliferator-activated receptor delta (PPARd) signaling pathway (AID 743212; calls by dose curve; note: % is set by controls: 0 for no effect and ±100 for the full control effect); conditions: HEK293H PPARd-UAS-bla, beta-lactamase FRET ratio, 17 h
# Sequence of UniProt Q03181 (Q03181 whole entry, looked up): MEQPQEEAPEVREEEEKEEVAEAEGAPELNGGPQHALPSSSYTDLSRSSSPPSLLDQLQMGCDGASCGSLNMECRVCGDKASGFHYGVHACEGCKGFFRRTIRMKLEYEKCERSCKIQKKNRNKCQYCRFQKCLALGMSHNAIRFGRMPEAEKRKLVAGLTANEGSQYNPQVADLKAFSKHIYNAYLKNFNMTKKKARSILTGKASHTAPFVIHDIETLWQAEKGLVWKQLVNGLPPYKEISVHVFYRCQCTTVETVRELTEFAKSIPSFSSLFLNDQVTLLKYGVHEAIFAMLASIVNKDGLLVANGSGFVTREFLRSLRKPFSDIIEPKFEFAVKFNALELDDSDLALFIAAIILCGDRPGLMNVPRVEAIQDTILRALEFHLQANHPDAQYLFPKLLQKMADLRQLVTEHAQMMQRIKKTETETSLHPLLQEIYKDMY
# In short: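 HEK293H PPARd-bla cells; 5 h preincubation 37 C/5% CO2; compound (DMSO) 37 C; LiveBLAzer B/G FRET substrate 2 h RT; fluorescence intensity.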
# [8] = qHTS assay to identify small molecule antagonists of the peroxisome proliferator-activated receptor delta (PPARd) signaling pathway - cell viability counter screen (AID 743213); conditions: PPARd-bla HEK293H viability, CellTiter-Glo luminescence, 17 h; viability change, negative = cytotoxic: at 62 µM (top of the series) unless noted; note: potency is the fitted concentration of half-maximal effect; nearly all actives have a fitted effect of over 50% in size
# In short: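 Agonist-stimulated (L165041, 300 nM final) HEK293H PPARd UAS-bla cells are exposed to compounds for 17 h at 37 C, and ATP-based luminescence (CellTiter-Glo) from the same wells reports cytotoxicity.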
# [9] = qHTS assay to identify small molecule agonists of the farnesoid-X-receptor (FXR) signaling pathway - cell viability counter screen (AID 743218); conditions: FXR-bla HEK293T viability, CellTiter-Glo luminescence, 16 h; viability change, negative = cytotoxic: at 62.6 µM (top of the series) unless noted; note: potency is the fitted concentration of half-maximal effect; nearly all actives have a fitted effect of over 45% in size
# In short: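 Parallel cytotoxicity test: compound-treated (16 h, 37 C) HEK 293T FXR-bla reporter cells were lysed with CellTiter-Glo and luminescence recorded.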
# [10] = qHTS assay to identify small molecule antagonists of the farnesoid-X-receptor (FXR) signaling pathway - cell viability counter screen (AID 743221; active = well fitted cell-killing curve with a large enough effect in the repeat runs, not every such curve was filed as active; inconclusive = weak or mixed curves, or effect the other way; inactive = no such curve, though single readings can be large or run the other way; note: potency is the fitted concentration of half-maximal effect; nearly all actives have a fitted effect of over 50% in size); conditions: FXR-bla HEK293T viability, CellTiter-Glo luminescence, 16 h; activity change, negative = cytotoxicity: at 62.6 µM (top of the series)
# In short: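 HEK 293T FXR-bla cells, 5 h pre-incubation; compound + CDCA 50 uM final, 16 h, 37 C; beta-lactamase FRET read first, then CellTiter-Glo luminescence, 30 min RT.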
# [11] = molecular target: Vitamin D3 receptor (Homo sapiens) (UniProt P11473); test: qHTS assay to identify small molecule agonists of the vitamin D receptor (VDR) signaling pathway (AID 743222; calls by dose curve; note: potency is the fitted concentration of half-maximal effect); conditions: HEK293T VDR-UAS-bla, beta-lactamase FRET ratio, 16 h; activation: at 63.5 µM (top of the series) unless noted
# Sequence of UniProt P11473 (P11473 whole entry, looked up): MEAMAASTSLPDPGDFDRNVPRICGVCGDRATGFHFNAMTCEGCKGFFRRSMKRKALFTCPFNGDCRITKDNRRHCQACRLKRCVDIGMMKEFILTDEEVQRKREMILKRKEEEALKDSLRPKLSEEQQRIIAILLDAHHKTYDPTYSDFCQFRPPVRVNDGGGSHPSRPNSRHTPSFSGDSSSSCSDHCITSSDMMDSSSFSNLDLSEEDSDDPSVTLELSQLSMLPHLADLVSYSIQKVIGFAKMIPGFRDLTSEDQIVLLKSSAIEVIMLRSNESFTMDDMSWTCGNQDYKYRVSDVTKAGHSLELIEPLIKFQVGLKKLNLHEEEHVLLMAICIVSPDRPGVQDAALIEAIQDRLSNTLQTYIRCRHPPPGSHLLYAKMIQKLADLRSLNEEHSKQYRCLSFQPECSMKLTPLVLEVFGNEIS
# In short: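 In VDR-bla cells, compound-induced beta-lactamase expression is quantified by FRET substrate fluorescence. Treatment lasts 16 h at 37C; substrate develops 2 h at room temperature.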
# [12] = molecular target: Vitamin D3 receptor (Homo sapiens) (UniProt P11473); test: qHTS assay to identify small molecule antagonists of the vitamin D receptor (VDR) signaling pathway (AID 743223; active = well fitted inhibition curve with a large enough effect in the signal ratio in the repeat runs, not every such curve was filed as active; inconclusive = weak or mixed curves, or effect the other way; inactive = no such curve, though single readings can be large or run the other way; the % refers to the signal ratio; note: % is set by controls: 0 for no effect and ±100 for the full control effect); conditions: VDR-UAS-bla HEK293T, beta-lactamase FRET ratio, 16 h; activity change, negative = inhibition: at 61 µM (top of the series) unless noted
# In short: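 Beta-lactamase reporter read-out: FRET substrate fluorescence after 2 h at room temperature, following 16 h exposure of VDR-bla cells to test compound plus 3 nM (final) 1alpha,25-dihydroxyvitamin D3 agonist at 37C.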
# [13] = qHTS assay to identify small molecule antagonists of the peroxisome proliferator-activated receptor gamma (PPARg) signaling pathway - cell viability counter screen (AID 743194); conditions: PPARg-bla HEK293H viability, CellTiter-Glo luminescence, 17 h, co-treated with 50 nM rosiglitazone; activity change, negative = cytotoxicity: at 62.6 µM (top of the series); note: potency is the fitted concentration of half-maximal effect; nearly all actives have a fitted effect of over 55% in size
# In short: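 Viability was measured as CellTiter-Glo luminescence in GeneBLAzer PPARg UAS-bla HEK293H cells. These cells had been exposed 17 h at 37 C to compounds together with rosiglitazone at 50 nM final, with the beta-lactamase readout taken in the same wells.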
# [14] = qHTS assay for small molecule activators of the heat shock response signaling pathway (AID 743210; active = well fitted activation curve with a large enough effect in the signal ratio in the repeat runs, with a control signal flat, not every such curve was filed as active; inconclusive = weak or mixed curves; the % refers to the signal ratio; note: potency is the fitted concentration of half-maximal effect); conditions: HeLa HSE-bla reporter, beta-lactamase ratio, 5 h; activation: at 62.6 µM (top of the series)
# In short: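 HeLa HSE-bla cells, overnight plating; cpd in DMSO 5 h, 37 C; LiveBLAzer B/G FRET substrate 2.5 h RT; fluorescence intensity read.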
# [15] = molecular target: Bile acid receptor (Homo sapiens) (UniProt Q96RI1); test: qHTS assay to identify small molecule antagonists of the farnesoid-X-receptor (FXR) signaling pathway (AID 743217; active = well fitted inhibition curve with a large enough effect in the signal ratio in the repeat runs, not every such curve was filed as active; inconclusive = weak or mixed curves, or effect the other way; inactive = no such curve, though single readings can be large or run the other way; the % refers to the signal ratio; note: potency is the fitted concentration of half-maximal effect); conditions: HEK293T FXR-UAS-bla, beta-lactamase ratio, CDCA-stimulated, 16 h; activity change, negative = inhibition: at 62.6 µM (top of the series) unless noted
# Sequence of UniProt Q96RI1 (Q96RI1 whole entry, looked up): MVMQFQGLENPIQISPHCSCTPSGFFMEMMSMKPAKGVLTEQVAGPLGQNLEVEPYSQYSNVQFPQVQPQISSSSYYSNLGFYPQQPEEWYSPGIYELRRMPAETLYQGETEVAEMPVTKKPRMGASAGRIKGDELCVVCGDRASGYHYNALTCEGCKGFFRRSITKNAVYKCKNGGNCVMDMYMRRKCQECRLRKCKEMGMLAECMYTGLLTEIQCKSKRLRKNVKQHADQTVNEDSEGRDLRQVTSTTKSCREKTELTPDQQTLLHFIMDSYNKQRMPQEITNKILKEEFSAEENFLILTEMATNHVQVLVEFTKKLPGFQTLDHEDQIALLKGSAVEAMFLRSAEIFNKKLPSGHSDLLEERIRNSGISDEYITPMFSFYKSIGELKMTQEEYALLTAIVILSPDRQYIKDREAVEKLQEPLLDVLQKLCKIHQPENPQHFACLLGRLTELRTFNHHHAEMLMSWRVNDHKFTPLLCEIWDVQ
# In short: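 GeneBLAzer FXR-UAS-bla HEK 293T, CDCA-stimulated (50 uM final). Compound treatment 16 h, 37 °C. Detection: beta-lactamase cleavage of B/G FRET substrate, fluorescence.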
# [16] = qHTS assay for small molecule activators of the heat shock response signaling pathway - cell viability counter screen (AID 743209); conditions: HSE-bla HeLa viability, CellTiter-Glo luminescence, 5 h; activity change, negative = cytotoxicity: at 62.6 µM (top of the series); note: potency is the fitted concentration of half-maximal effect; nearly all actives have a fitted effect of over 50% in size
# In short: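 Readout: CellTiter-Glo luminescence, 30 min at room temperature. System: HSE-bla HeLa cells, 1500/well, plated overnight. Treatment: compounds in DMSO, 5 h at 37 C.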
# [17] = molecular target: Bile acid receptor (Homo sapiens) (UniProt Q96RI1); test: qHTS assay to identify small molecule agonists of the farnesoid-X-receptor (FXR) signaling pathway (AID 743220; active = well fitted activation curve with a large enough effect in the signal ratio in the repeat runs, not every such curve was filed as active; inconclusive = weak or mixed curves, or effect the other way; the % refers to the signal ratio; note: % is set by controls: 0 for no effect and ±100 for the full control effect); conditions: HEK293T FXR-UAS-bla, beta-lactamase FRET ratio, 16 h; activation: at 62.6 µM (top of the series) unless noted
# In short: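 Beta-lactamase reporter under UAS control in GeneBLAzer FXR HEK 293T cells (5000/well) measured with LiveBLAzer FRET substrate after 2 h at room temperature. Compound exposure lasted 16 h at 37C.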
# [18] = activation: at 62.6 µM (top of the series) unless noted
# Tags give direction and shape of the fitted curve or compound fluorescence and quenching.
smiles,measurement,setting,value
CCC1=C[C@@H]2CN(C1)Cc1c([nH]c3ccccc13)[C@@](C(=O)OC)(c1cc3c(cc1OC)N(C)[C@H]1[C@@](O)(C(=O)OC)[C@H](OC(C)=O)[C@]4(CC)C=CCN5CC[C@]31[C@@H]54)C2,Potency,[1],"inconclusive: 29.8 µM [falling, partial curve]"
same,activation,[2],inconclusive: -13.1%
same,"ratio activity, negative = inhibition",[3],inconclusive: -36.6%
same,Potency,[4],"inconclusive: 0.298 µM [rising, full curve]"
same,Potency,[5],"inconclusive: 0.335 µM [rising, partial curve, poor fit]"
same,Potency,[6],active: 29.8 µM
same,activation,[7]; [18],inconclusive: 6.06%
same,Potency,[8],"inconclusive: 0.0944 µM [cytotoxic, full curve, poor fit]"
same,Potency,[9],active: 26.6 µM
same,Potency,[10],"inconclusive: 29.8 µM [falling, partial curve]"
same,Potency,[11],inactive
same,"activity change, negative = inhibition",[12],inconclusive: -15.4%
C=CC(=O)Nc1cc2c(Nc3ccc(F)c(Cl)c3)ncnc2cc1OCCCN1CCOCC1,Potency,[1],"inconclusive: 10.6 µM [falling, partial curve]"
same,Potency,[3],inconclusive: 29.8 µM
same,Potency,[13],active: 29.8 µM
same,Potency,[4],"inconclusive: 0.668 µM [falling, partial curve, poor fit]"
same,Potency,[5],"inconclusive: 33.5 µM [cytotoxic, single point]"
same,Potency,[14],inconclusive: 21.1 µM
same,Potency,[6],"inconclusive: 11.9 µM [cytotoxic, single point]"
same,Potency,[15],"inconclusive: 4.22 µM [inhibitor, full curve]"
same,Potency,[9],"inconclusive: 37.6 µM [cytotoxic, single point]"
same,activation,[11],inconclusive: -26.3%
same,Potency,[12],inactive
CCCCC/C=C\C/C=C\CCCCCCCC(=O)O,Potency,[1],inactive
same,Potency,[3],"inconclusive: 21.5 µM [activator, partial curve] and inconclusive: 38.9 µM [partial curve]"
same,Potency,[13],"inconclusive: 17.1 µM [rising, partial curve, poor fit]"
same,Potency,[4],active: 61.1 µM
same,activation,[4],inconclusive: 19%
same,Potency,[5],"inconclusive: 68.6 µM [cytotoxic, single point]"
same,Potency,[16],"active: 42.9 µM and inconclusive: 54.9 µM [cytotoxic, single point]"
same,Potency,[6],"inconclusive: 19.5 µM [cytotoxic, partial curve]"
same,activation,[7]; [18],inconclusive: 3.06%
same,activation,[7]; at 62.6 µM (top of the series),inactive: -0.732%
same,Potency,[15],"inconclusive: 49 µM [fluorescent, single point]"
same,Potency,[17],inactive
same,Potency,[11],"inconclusive: 12.3 µM [fluorescent, full curve]"
same,"activity change, negative = inhibition",[12],inconclusive: 1.47% and inconclusive: 13.4%
